Experimental findings from ChEMBL document CHEMBL4888484, “Replenishing the malaria drug discovery pipeline: Screening and hit evaluation of the MMV Hit Generation Library 1 (HGL1) against asexual blood stage Plasmodium falciparum ,using a nano luciferase reporter read-out” (2022) are described below.

Among all 150,000 compounds or so, about 540 (0.36%) showed an effect of 50% or more. The list shows a part of the results.

For the test, the system named is Plasmodium falciparum. In words: Primary screen in NF54 nanoGlo assay, in single point, at 2uM, 72h; a lower Z score goes with more inhibition. In kind it is functional, Erythrocyte. To be noted: timepoint 72 hour.
Turning to `O=C(NC1CCCCC1)N1CCC[C@H](CN2CCOCC2)CC1`, the “% Inhibition” value is -1% and the Z score is 0.14.

For `CC(=O)N[C@H]1C[C@H]2CN(C(=O)NCCc3ccccc3)CC(=O)N2C1`, the “% Inhibition” value is on record as -2% and the Z score turned out to be 0.24.

On to `CCCCNC(=O)Cc1noc(CN(CC)C2CC2)n1`, for which the “% Inhibition” value is -10% and the Z score is recorded as 0.83.

Consider `Cc1cc(N)nn1Cc1nnc2n1CCC2`, for which the “% Inhibition” value is 35% and the Z score is listed as -3.91.

`Cn1nncc1-c1csc(N2CCOCC2)n1`: the “% Inhibition” value is -11% and the Z score amounted to 1.43.

Consider `O=C(CCOCC(F)F)Nc1ccc(Br)cc1O`, for which the “% Inhibition” value is given as -1% and the Z score is listed as 0.15.

For the compound `Cc1ccc2c(c1)c(=O)c1c(n2C(C)C)CCN(C(=O)C(F)(F)F)C1`, the “% Inhibition” value is on record as -4% and the Z score is 0.62.

For `C[C@@H](C(=O)Nc1n[nH]c(Cc2cccc(F)c2)n1)n1nnc(-c2ccccc2)n1`, the “% Inhibition” value is 9% and the Z score was -1.83.

For the compound `CC(=O)Nc1cccc(-c2c[nH]nc2C#N)c1`, the “% Inhibition” value is on record as -6% and the Z score amounted to 1.29.

With `C[C@@H](C(N)=O)n1cc(-c2ccc(C(=O)N(C)C3CCN(C)CC3)cc2)cn1`, the “% Inhibition” value is -3% and the Z score worked out at 0.32.

As for `O=S1(=O)[C@H](c2ccccc2)CCN1Cc1cnc(C(F)(F)F)nc1`, the “% Inhibition” value is listed as 2% and the Z score is recorded as -0.29.

With `Cc1ccc(-c2cccc(C(=O)N3CC[C@@](O)(c4ccccc4C)C3)c2)nn1`, the “% Inhibition” value turned out to be 1% and the Z score is -0.08.

On to `O=S(=O)(c1cccc(Cl)c1)N1CCCn2nccc21`, for which the “% Inhibition” value is 0% and the Z score is -0.04.

For the compound `Cc1n[nH]c(C2CC2)c1C(=O)N[C@@H](C)c1nncn1C1CCCC1`, the “% Inhibition” value is given as -27% and the Z score is reported as 2.84.

`Cc1cc(NC(=O)[C@H](C)OC(=O)c2ccc(Cl)cc2O)on1`: the “% Inhibition” value is reported as -3% and the Z score worked out at 0.32.

With `O=S(=O)(NCCN1CCc2ccccc2C1)N1CCCCC1`, the “% Inhibition” value was 5% and the Z score was -0.88.

On to `C[C@@](O)(CNC(=O)c1ccsc1)Cc1ccsc1`, for which the “% Inhibition” value is listed as -10% and the Z score is 1.44.

For the compound `C[C@H](Nc1ncnc2[nH]ncc12)c1ccc(Cl)s1`, the “% Inhibition” value was -12% and the Z score turned out to be 1.22.

For `Cc1ccc(S(=O)(=O)N[C@@H](Cc2c[nH]c3ccccc23)C(=O)O)cc1`, the “% Inhibition” value is given as -14% and the Z score is recorded as 1.79.

`NC(=O)c1cn(C2CN(Cc3cc(Cl)ccc3F)C2)nn1`: the “% Inhibition” value stood at 2% and the Z score is -0.32.

In the case of `O=C(c1cccc(=O)[nH]1)N1CCC(n2cc(-c3cccnc3)nn2)CC1`, the “% Inhibition” value was -9% and the Z score was 1.32.

Turning to `COCCn1cc(S(=O)(=O)NCC(F)(F)F)cn1`, the “% Inhibition” value is on record as -8% and the Z score was determined as 0.97.

`CN(Cc1cnc2cnccn12)[C@H](c1ccc(F)cc1)C1CC1`: the “% Inhibition” value is -7% and the Z score came out at 1.06.

On to `O=C1N[C@@H](c2ccc(OCc3c(F)cccc3Cl)cc2)Nc2ccccc21`, for which the “% Inhibition” value is listed as -11% and the Z score is 1.68.

Turning to `CN(Cc1nc(-c2ccccn2)no1)C(=O)[C@H]1CC(=O)OC12CCCC2`, the “% Inhibition” value is recorded as -7% and the Z score is 0.99.

In the case of `O=C(Cn1ccc2ccccc21)N1CC(Nc2ccncn2)C1`, the “% Inhibition” value was -14% and the Z score stood at 1.6.

For `Cc1ccnc2c1NC(=O)CN2C(=O)c1ccc(Br)cc1`, the “% Inhibition” value is given as 5% and the Z score is -0.61.

As for `CC1CC(C(=O)N2CC(C(N)=O)C(C(N)=O)C2)CC(C)(C)C1` (stereo unspecified), the “% Inhibition” value is given as 2% and the Z score is recorded as -0.33.

Take `CCc1ccccc1NC(=O)C1CCN(S(=O)(=O)c2cc3c(cc2C)NC(=O)[C@H](C)O3)CC1`: the “% Inhibition” value is 13% and the Z score is -1.56.

As for `COc1cc(CN2CCCC[C@H]2c2cn[nH]c2)cc(OC)c1OC`, the “% Inhibition” value is -11% and the Z score is on record as 1.24.

Regarding `COC(=O)c1nc(-c2cnn(C)c2)sc1-c1ccccc1`, the “% Inhibition” value is -1% and the Z score is listed as 0.13.

In the case of `O=C(Nc1ccccc1-c1cn2c(n1)CCCC2)[C@H]1CCOC1`, the “% Inhibition” value amounted to 15% and the Z score is recorded as -1.91.

Consider `C[C@H](O)CN1CCC(CN(C)Cc2ccn(-c3ccccc3)n2)CC1`, for which the “% Inhibition” value was -4% and the Z score is listed as 0.57.

Turning to `O=C(c1cnc(Cc2c(Cl)cccc2Cl)nc1O)N1CCCOCC1`, the “% Inhibition” value is -9% and the Z score came out at 1.8.

Regarding `Cc1c[nH]c(CN(C)C(=O)c2cc3cnccc3nc2C)n1`, the “% Inhibition” value stood at 7% and the Z score is -1.35.

On to `COc1ccc(C(=O)Nc2c(-c3ccccc3Cl)c(=O)c(C)nn2-c2ccc(C)cc2)cc1`, for which the “% Inhibition” value turned out to be 9% and the Z score was -1.23.

With `CC(C)C(=O)N1CCCN([C@@H](C)C(=O)N2CCc3ccccc32)CC1`, the “% Inhibition” value is on record as 4% and the Z score is listed as -0.36.

With `O=C(C(O)c1ccccc1)N1CCC2C(CCC(=O)N2C2CC2)C1` (stereo unspecified), the “% Inhibition” value turned out to be 2% and the Z score is -0.3.

In the case of `O=C(COc1ccccc1)N1CC(c2nc(-c3cnccn3)no2)C1`, the “% Inhibition” value was determined as 4% and the Z score is listed as -0.79.

Consider `Cc1cc(CNCc2cc3ccc(F)cc3nc2OCc2ccccc2Cl)on1`, for which the “% Inhibition” value is -1% and the Z score is recorded as 0.13.

In the case of `CC(NC(=O)c1cccc(C(=O)NC(C)c2ccccc2)n1)c1ccccc1` (stereo unspecified), the “% Inhibition” value is recorded as -7% and the Z score is on record as 0.91.

`Cc1cccc(C)c1NC(=O)[C@H]1CCCN(C(=O)Cc2cccc3ccccc23)C1`: the “% Inhibition” value was -3% and the Z score is 0.47.

As for `CCN(Cc1nc(C)no1)Cc1cc2cc3c(cc2nc1-c1ccc(F)cc1)OCO3`, the “% Inhibition” value is -10% and the Z score was 1.35.

In the case of `O=C(NC1COCCOC1)N1CCC2(c3ccccc3)C(C1)C2(F)F` (stereo unspecified), the “% Inhibition” value was 4% and the Z score was -0.61.

For the compound `CCCO/C(=N/C(=O)c1ccccc1Cl)NCc1ccc2c(c1)OCO2`, the “% Inhibition” value is listed as -12% and the Z score worked out at 1.98.

Turning to `CC(Cn1cccn1)NCC(=O)N(C)CC1COc2ccccc2O1` (stereo unspecified), the “% Inhibition” value is recorded as -7% and the Z score is on record as 0.59.

Take `CC1(C)CN(C(=O)Nc2ccn(CCN3CCNC3=O)n2)C1`: the “% Inhibition” value is -4% and the Z score is on record as 0.46.

Regarding `COc1cc(N[C@H]2C[C@H](c3nnc(CN(C)C)n3C)C2)nc(OC)n1`, the “% Inhibition” value was found to be 11% and the Z score is on record as -1.47.

Consider `CC(C)CC(=O)N1CCc2cc(CNS(=O)(=O)c3ccc(C4CCCCC4)cc3)ccc21`, for which the “% Inhibition” value is reported as -10% and the Z score came to 1.88.

Regarding `CC[C@@H]1OC2(CCN(c3cccc(C(F)(F)F)n3)CC2)NC1=O`, the “% Inhibition” value was -6% and the Z score is on record as 1.

Turning to `O=C(NCc1ccc(C(=O)N2CCOCC2)cc1)N1CCc2c(nnn2-c2ccccc2)C1`, the “% Inhibition” value was -11% and the Z score was 1.32.

For `CCc1nn(C)cc1NC(=O)NCC[C@H]1CC(=O)N(C)C1`, the “% Inhibition” value is recorded as -2% and the Z score is recorded as 0.37.

For the compound `Cc1cccc(CNC(=O)C2CC(c3ccc(F)cc3)CN(Cc3ccc(F)cc3F)C2)c1` (stereo unspecified), the “% Inhibition” value is on record as -2% and the Z score was determined as 0.35.

By % Inhibition is commonly meant the relative decrease from the control value, in per cent.
